# From PubChem BioAssay AID1347073 (National Center for Advancing Translational Sciences (NCATS), 2019)
# The whole screen tested about 45,000 compounds, of which about 200 (0.44%) were called active. Roughly 7% stayed inconclusive and do not appear here. Calls follow the shape of the dose curve; as a rule, active = well fitted activation curve with a large enough effect; inconclusive = small, poorly fitted or top-dose-only effect; inactive = no such curve, though single readings can be large or run the other way. The list shows a part of the results.
# Test: qHTS of TDP-43 Inhibitors: NCGC Sytravon Library Screen; also: 0% is about no effect; nearly all actives have a fitted effect of over 55% in size
# Details: yeast TDP-43 toxicity rescue, BacTiter-Glo growth, 24 h; series mostly up to 46.1 µM; growth rescue (activation): at the top concentration
# Procedure, shortened: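 TDP-43-expressing yeast, pregrown in raffinose, seeded at OD600 0.02 in galactose medium with compound for 24 hr at 30 deg C. Growth read by BacTiter-Glo luminescence, so rescue of toxicity appears as activation.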
row,Structure (SMILES),growth rescue (activation)
1,Cc1ccc(CNC(=O)CCCC(=O)c2ccccc2)cc1,inactive: 18.2%
2,COc1ccc(N2CCN(C(=O)C(Cc3ccccc3)NC(=O)c3ccccc3)CC2)cc1 (centres undefined),inactive: 9.69%
3,Nc1nc(-c2ccccn2)nc(N)c1Cc1c(F)cccc1Cl,inactive: -12.8%
4,Cc1csc(NC(=O)CSc2nnc(-c3ccccn3)n2-c2ccc(C)c(C)c2)n1,inactive: 23.2%
5,O=C(N/C(=C/c1ccccc1)C(=O)N1CCCCC1)c1ccc(Br)o1,inactive: -4.2%
6,CCc1ccccc1NC(=O)C1CCN(c2cnccn2)CC1,inactive: 13%
7,O=C(C1CCN(S(=O)(=O)c2cccc3nonc23)CC1)N1CCCCC1,inactive: 11.8%
8,Cc1cccc(C)c1NC(=O)c1csc([C@H]2C[C@H](O)[C@@H](CO)O2)n1,inactive: 8.77%
9,CCC(=O)Nc1nnc(SCC(=O)NC2CCCC2)s1,inactive: -4.33%
10,N#CCN1CCN(CCC(=O)Nc2ccc(OCc3ccccc3)cc2)CC1,inactive: 0.398%
11,O=C1c2ccccc2C(=O)N1CC1=NCCc2ccccc21,inactive: 9.81%
12,O=C(COc1ccc(Cl)cc1Cl)N1CCN(c2ccccn2)CC1,inactive: -12.1%
13,COc1ccc(Cl)cc1CN1C(=O)NC2(CCCCCC2)C1=O,inactive: 5.63%
14,Cn1c(SCc2cc([N+](=O)[O-])cc3c2OCOC3)nnc1-c1ccccn1,inactive: -8.65%
15,O=C1/C(=C\c2ccco2)SC(=S)N1c1ccccc1,inactive: 9.38%
16,Cc1ccc(S(=O)(=O)N(C)C)cc1-n1c(SCC(=O)Nc2ccc(F)c(F)c2F)nc2ccccc2c1=O,inactive: 7.59%
17,COc1cc2ccccc2cc1C(=O)NC1CCCC1,inactive: 18.2%
18,Cc1ccc(NS(=O)(=O)c2cccc(C(=O)O)c2)cc1S(=O)(=O)N1CCOCC1,inactive: 0.621%
19,CC(OC(=O)c1cc(S(=O)(=O)N(C)c2ccccc2)ccc1Cl)C(=O)Nc1ccc2c(c1)OCCO2 (centres undefined),inactive: 26.6%
20,COc1ccccc1NC(=O)Nc1cnccn1,inactive: 12.9%
21,COc1ccc(C(=O)CCC(=O)NCCc2c[nH]c3ccccc23)cc1,inactive: 12.1%
22,CC(=O)Nc1ccc(Oc2cnccn2)cc1,inactive: 2.93%
23,COCCNC(=O)C(C)N(c1ccc(Oc2ccccc2)cc1)S(C)(=O)=O (centres undefined),inactive: -16.1%

row,Structure (SMILES),growth rescue (activation)
1,NS(=O)(=O)c1ccc(NCC2COc3ccccc3O2)c([N+](=O)[O-])c1 (centres undefined),inactive: -9.42%
2,CC(NC(=O)C(=S)N1CCN(C)CC1)c1ccccc1 (centres undefined),inactive: 8.36%
3,CC(=O)NCCc1ccc(C(=O)COC(=O)c2cc(C)oc2C)cc1,inactive: 10.3%
4,COC(=O)c1cnn2c1C(=O)N(Cc1cccs1)CC2,inactive: 20.6%
5,CCOC(=O)/C=C1\SCC(=O)N1CC(=O)NCCOC,inactive: -4.18%
6,COc1ccc(C(=O)C2CCCN(C(=O)CCC3=NNC(=O)CC3)C2)c(C)c1 (centres undefined),inactive: -7.36%
7,Cc1cc(OCC(=O)OCC(=O)NCc2cccs2)ccc1Cl,inactive: -13.1%
8,CC(C)=CC(=O)OCC(=O)Nc1cccc([N+](=O)[O-])c1,inactive: 20.5%
9,CN(C)C(=O)c1ccc(N/C=C(\C=O)c2nc3ccccc3o2)cc1,inactive: -3.13%
10,Cc1cccc(OCC(O)Cn2c(N3CCCCC3)nc3c2c(=O)[nH]c(=O)n3C)c1 (centres undefined),inactive: 1.3%
11,CC1(C)CC(=O)c2cnc3nc4ccccc4n3c2C1,inactive: 8.82%
12,CCOc1cc(/C=C2/C(=O)NN(c3cccc(Cl)c3)C2=O)ccc1O,inactive: -21.1%
13,COc1cc(-c2coc3c(C(=O)Nc4ccc(C(C)C)cc4)cccc23)ccc1O,inactive: 29.3%
14,COCCN(C(=S)Nc1ccccc1C)C(C)c1cccnc1 (centres undefined),inactive: 11%
15,O=C(CN1CCN(C(=O)c2ccco2)CC1)N1CCc2[nH]c3ccccc3c2C1,inactive: -2.66%
16,CCOC(=O)N1CCC(NS(=O)(=O)c2cc(Br)cc3c2N(C(=O)CC)CC3)CC1,inactive: 7.51%
17,N#Cc1cc(C(=O)c2ccccc2O)cn(-c2ccc(Cl)cc2)c1=O,inactive: 17.9%
18,O=C(NNc1cccc(Cl)n1)C(F)(F)F,inactive: -5.96%
19,Cc1cc(NC(=O)CSc2nc3c(cc2C#N)CCC3)no1,inactive: 2.32%
20,CCCCNC(=O)C1CCC(CNS(=O)(=O)c2ccc(C)cc2)CC1 (centres undefined),inactive: 8.54%
21,COCCCN1C(=O)C(=O)/C(=C(/O)c2ccc(OC(C)C)cc2)C1c1cccnc1 (centres undefined),inactive: 4.84%
22,CCNC(=S)N/N=C(\C)c1ccc(Cl)s1,inactive: 25.8%
23,COc1ccc(NC(=O)CCNS(=O)(=O)c2ccc(Cl)c([N+](=O)[O-])c2)cc1S(N)(=O)=O,inactive: 13.9%

row,Structure (SMILES),growth rescue (activation)
1,CC(Sc1nnc2n1CCCCC2)C(=O)Nc1ccc(S(N)(=O)=O)cc1 (centres undefined),inactive: 34.4%
2,COc1ccc(C(C(=O)NCC2CCCO2)N(C(=O)CNC(=O)c2cccs2)c2ccc(C)cc2)cc1OC (centres undefined),inactive: 6.97%
3,COc1ccccc1CCNC(=O)C1(C)CC1(Cl)Cl (centres undefined),inactive: 13.7%
4,O=P(OC1CCCCC1)(OC1CCCCC1)C(O)c1cccnc1 (centres undefined),inactive: -5.8%
5,O=C(NNC(=S)NC1CCCCC1)c1sc2ccccc2c1Cl,inactive: 13.1%
6,CC(=O)c1ccc(C(=O)N2CCCC(C(=O)c3cc(F)ccc3F)C2)s1 (centres undefined),inactive: 27.8%
7,Cc1nc(NCc2ccc(S(N)(=O)=O)cc2)c2c(C)c(C)sc2n1,inactive: -0.394%
8,O=C(Nc1ccc2c(c1)C(=O)OC2)c1ccc(Cl)cc1,inactive: 7.14%
9,N#C/C(=N\Nc1ccccc1[N+](=O)[O-])C(=N)N1CCCCC1,inactive: -24.9%
10,O=C(NCc1cccnc1)c1cccc(NC(=O)c2ccco2)c1,inactive: 7.72%
11,CN(C)CCCNc1oc(/C=C/c2ccc(F)cc2)nc1C#N,inactive: 12%
12,O=[N+]([O-])c1cc(S(=O)(=O)Nc2ccc(Cl)cc2)ccc1N/N=C/c1ccncc1,inactive: -10.6%
13,CN=C1S/C(=C\c2ccc(Cl)cc2)C(=O)N1C,inactive: 27.4%
14,CCC(=O)Nc1ccc(C(=O)CSc2nnc(-c3ccc(NS(C)(=O)=O)cc3)n2C)cc1OC,inactive: 1.93%
15,Cn1c(=O)c2c(nc(CN3CCN(C(c4ccccc4)c4ccccc4)CC3)n2CCCO)n(C)c1=O,inactive: 0.875%
16,CCN(CC)c1nc2ccccc2n(Cc2cccc(OC)c2)c1=O,inactive: 29.6%
17,CN(CC1COc2ccccc2O1)C(=O)CSc1ncccn1 (centres undefined),inactive: 7.78%
18,CCOC(=O)/C(=C\c1c[nH]c2ccccc12)NC(C)=O,inactive: 5.58%
19,CCOc1ccc(S(=O)(=O)NCCCn2ccnc2)cc1NC(C)=O,inactive: -1.29%
20,O=C1/C(=C/c2ccc(O)c(O)c2)SC(=S)N1Nc1ccccc1,inactive: 8.34%
21,O=C1CCCC(O)=C1C=NCCc1ccccc1,inactive: 10.4%
22,CCC1OC23CCCCC2C(C#N)(C(=N)O3)C1(C#N)C#N (centres undefined),inactive: -1.89%
23,CCOc1ccc(C=NNc2ccc(S(=O)(=O)Nc3ccccc3C(=O)O)cc2[N+](=O)[O-])cc1,inactive: 5.71%
